107 compounds from PubChem BioAssay AID434955 (Southern Research Specialized Biocontainment Screening …, 2010) can be followed below.

The list shows a part of the results. Shown are side measurements of this screen, not its main read-out; they come without a call. Compounds called inactive in the main read-out are mostly missing here.

A short description of this test: beta-lactam sensitization of Mtb H37Rv, H37Rv (AID 434955).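 Also: growth measured after seven days incubation then overnight dye step; 0% = bacteria only wells and 100% = bacteria with antibiotic.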 The following applies: M. tuberculosis H37Rv growth with meropenem, percent inhibition; measured here: primary screen without meropenem; at 25 µM.
Broadly, the inhibition is the relative decrease from the control value, in per cent. Regarding `O=C(O)c1cc(S(=O)(=O)NCCN2CCNC2=O)ccc1O`, the inhibition is 2.15%. The figure for `Cn1c(SCC(=O)NC2(C#N)CCCCC2)nnc1-c1cccnc1` is -1.31%. Consider `Cc1c(O)ccc(C(=O)CN2CCN(c3ccccc3F)CC2)c1O`, for which the inhibition was 5.35%.

Turning to `O=[N+]([O-])c1cccn2cc(-c3ccc(Br)cc3)nc12`, the inhibition was 11.6%. As for `N#Cc1ccc(C23CC4(C2)[C@H](CN(Cc2cccnc2)[C@@H]4c2ccccc2)C3c2ccccc2)cc1` (some centres not stated), the inhibition was 35%.

Turning to `Cc1ccc2c(c1)N(CC(=O)NC1CCCCCC1)C(=O)c1cccnc1O2`, the inhibition came out at 1.85%. The value for `CCOC(=O)c1ccc(-c2ccc(C=O)o2)cc1` was 12.7%; that for `COc1ccccc1/C=C/C(=O)c1c2c(c(C)[nH]c1=O)CCCC2` was -3.04%; that for `O=S(=O)(Cc1ccccc1)NCc1cccnc1` was -0.02%. For the compound `COc1cccc(N2CCN(c3cnc4ccccc4n3)CC2)c1`, the inhibition was -5.39%. For the compound `CCNC(=O)COn1c(SCC(=O)NCC)nc2ccccc2c1=O`, the inhibition is -5.59%. As for `COC(=O)C1=C(C)NC(C)=C(C(=O)OCC2CCCO2)C1c1ccc(Cl)c([N+](=O)[O-])c1` (configuration not stated), the inhibition was 4.23%. Turning to `O=C(N/N=C/C(Br)=C\c1ccccc1)c1ccc2nc[nH]c2c1`, the inhibition is 31.2%. For `CCCN1CCc2c(sc(NC(=O)CCS(=O)(=O)c3ccccc3)c2C(=O)OC)C1`, the inhibition is -2.93%. For `CCC(=O)Nc1cc(OC)c(NC(=O)c2ccccc2)cc1OC`, the inhibition is 27.5%. `O=C(/C=C/c1cccs1)Nc1nc(-c2ccccc2)cs1`: the inhibition was 4.83%.

Take `O=C1CCC(C(=O)N2CCCC(Nc3ccc(F)cc3)C2)=NN1` (configuration not stated): the inhibition is -6.73%. `Cc1onc(NC(=O)c2ccc([N+](=O)[O-])o2)c1Br`: the inhibition is -2.66%. The value for `Cc1nc(/N=C(\N)NC(=O)c2ccccc2)nc2ccccc12` was 6.22%. As to `O=C(CN1C(=O)NC2(CCCC2)C1=O)OCCOc1ccccc1`, the inhibition was 2.39%. The value for `CCCN(CCC)CCNC(=O)C1CCN(Cc2nc(-c3ccc(Cl)cc3)oc2C)CC1` was -18.7%. The figure for `Cc1ccc(C)c(NC(=O)C2Cc3ccccc3CN2C(=O)OCc2ccccc2)c1` (configuration not stated) is 41.9%; for `CCOc1ccc(CCN2C(=O)C3C4C=CC(C4)C3C2=O)cc1OCC` (configuration not stated) it is -9.81%; for `CCOc1ccc(CN2CCNC(=O)C2CC(=O)NC2CCOCC2)cc1` (configuration not stated) it is -9.88%. The figure for `COc1ccc(N(C(=O)c2ccncc2)S(=O)(=O)c2ccc(F)cc2)cc1` is -0.01%; for `Cn1ccnc1CN1CCN(C(=O)c2cc(COc3ccc(F)c(F)c3)on2)CC1` it is 1.42%; for `Cc1nc(CCNC(=O)CC2C(=O)NCCN2Cc2ccccc2)sc1C` (configuration not stated) it is -0.43%.

Consider `CCOC(=O)CN1C(=O)C2(OCCCO2)c2ccccc21`, for which the inhibition came out at 1.56%.

Regarding `Cc1ccc(C(CC(=O)NCc2ccco2)c2ccccc2)c(O)c1` (configuration not stated), the inhibition turned out to be 8.46%. The figure for `Cc1ccc2c(c1)cc1c(=O)n(CC(=O)N3CCC4(CC3)OCCO4)nc(C)n12` is 0.81%.

Consider `Cc1cc(C(=O)N/N=C/c2ccc(-c3ccc(C)c(Cl)c3)o2)n[nH]1`, for which the inhibition came out at 42.8%.

For the compound `O=C(NCCN1CCNC1=O)C1CCC(=O)N(CCc2ccccc2)C1` (configuration not stated), the inhibition is -14.5%. The figure for `COc1cc(C(=O)Nc2c(C(=O)O)[nH]c3ccc(Br)cc23)cc(OC)c1OC` is 7.31%. Turning to `CCOc1ccc(CC(=O)Nc2c3c(nn2C(C)(C)C)CS(=O)(=O)C3)cc1`, the inhibition is 3.73%.

As to `Cc1ccccc1N1CCN(C2CCCN(C(=O)c3csc(C(C)C)n3)C2)CC1` (configuration not stated), the inhibition is -4.1%. Turning to `O=C(c1ccccc1-c1ncc[nH]1)N1CCCC(Nc2ccc(F)cc2)C1` (configuration not stated), the inhibition turned out to be 0.59%. With `O=C(N/N=C/c1cccc(O)c1)c1ccc2c(c1)OCCO2`, the inhibition worked out at 3.78%. Take `O=C(Nc1cccc2ccccc12)/C(=C/c1cccc([N+](=O)[O-])c1)NC(=O)c1cccs1`: the inhibition worked out at 1.82%.

For `Cc1ccc(C(=O)NCC(=O)Nc2ccncc2)cc1C`, the inhibition stood at 0.43%.

As to `Cc1c(C(=O)N2CCCCCC2)c(S(=O)(=O)Nc2cccc(F)c2)c(C)n1C`, the inhibition is -2.39%.

In the case of `CCOC(=O)c1sc(NC(=O)CSc2nnc(-c3ccc(OC)cc3)n2CCOC)nc1C`, the inhibition was -19.8%. `O=C(CCN1C(=O)C2C3CCC(C3)C2C1=O)Nc1ccccc1Cl` (configuration not stated): the inhibition worked out at 4.48%.

As to `COc1ccc(S(=O)(=O)N2CCOC2CNC(=O)C(=O)NCc2ccccc2OC)cc1` (configuration not stated), the inhibition amounted to 0.15%. The value for `CCCOc1ccccc1/C=N/Nc1ccnc(=O)[nH]1` was 1.76%; that for `CCOC(=O)c1c(C)[nH]c(C)c1S(=O)(=O)N(C)CC(=O)NCc1cccc(Br)c1` was -3.87%; that for `Cc1cc(C)n(-c2nc3sc4c(c3c(=O)[nH]2)CCCC4)n1` was 92.9%. The value for `O=C(NCCOc1ccccc1)C1CCC(=O)N(C2CCCCCC2)C1` (configuration not stated) was -7.09%; that for `CCN(c1ccccc1)S(=O)(=O)c1cc2c(cc1C)N(C)CCO2` was 7.01%. The figure for `CC(Sc1nnc(-c2ccccc2Br)o1)C(=O)N1CCOCC1` (configuration not stated) is 2.93%. `O=C(NCCc1ccccn1)c1ccc(OC2CCN(Cc3ccccn3)CC2)cc1`: the inhibition was found to be 5.24%. For the compound `CCOc1ccc(CCN2C(=O)CCC2(C)C(=O)NC(C)CC)cc1OCC` (configuration not stated), the inhibition is -4.27%. The figure for `CCC(C)(C(=O)NC1CCCC1)N(C(=O)c1ccccn1)c1ccccc1` (configuration not stated) is -10.4%; for `O=C(c1cccs1)c1coc2ccc(O)c(CN(CCO)CCO)c12` it is -3.65%. Turning to `O=C(CSc1nnc(CNC(=O)c2ccc(F)cc2)o1)NCc1ccccc1`, the inhibition was 9.12%.

With `Cc1ccc(NC(=O)C(=O)NCc2ccc(/C=N/NC(=O)c3c(C)nc4ccccn34)o2)cc1`, the inhibition stood at 8.21%. With `O=C(Nc1ccccc1Cl)c1csc(-c2cccnc2)n1`, the inhibition amounted to 31.8%.

Regarding `CCc1ccc(N2C(=O)/C(=C/c3cccs3)N(CC(=O)OC)C2=S)cc1`, the inhibition is -1.87%. As to `O=C(NC(=S)Nc1ccccc1N1CCCCC1)c1ccc(F)cc1`, the inhibition is 2.92%.

Turning to `CCn1c(=O)cc(OCC(=O)NCC2CCCO2)c2ccccc21` (configuration not stated), the inhibition was 19.6%. In the case of `COc1ccc(Cl)cc1NC(=O)CN(C)C(=O)Cc1ccc2c(c1)CCC2`, the inhibition amounted to 6.31%. For `CCOC(=O)c1[nH]c(C)c(C(=O)NCc2cccnc2)c1C`, the inhibition was -5.92%. In the case of `CCOC(=O)C1C(=O)NC(N2CCCCC2)=NC1c1ccccc1` (configuration not stated), the inhibition was 3.45%. The figure for `CC(C)C(NS(=O)(=O)c1ccc2c(c1)C(C)(C)C(=O)N2C)C(=O)NCc1ccc(F)cc1` (configuration not stated) is -9.12%; for `C=CCNc1oc(-c2ccco2)nc1S(=O)(=O)c1ccccc1` it is 0.17%. Consider `Cc1ccc(O)c(N=Cc2sc3ccccc3c2Cl)c1`, for which the inhibition was -1.75%.

Turning to `O=C(NCc1ccccc1)NC(=O)c1ccncc1`, the inhibition came to 2.33%. The value for `Cc1cccc(N2C(=O)C(Cl)=C(N3CCOCC3)C2=O)c1` was -0.44%; that for `CCCn1ncc(CN2CCC(C(=O)Nc3cccc(-c4cccc(F)c4)c3)CC2)c1C` was 9.62%; that for `CCc1c(C)nc(SC/C=C/c2ccccc2)[nH]c1=O` was -1.33%.

In the case of `COc1ccccc1-c1cc(C(=O)NCCCn2ccnc2)no1`, the inhibition turned out to be 1.3%.

Consider `O=C(C(NS(=O)(=O)c1cccc2nsnc12)c1ccccc1)N1CCN(c2ccccn2)CC1` (configuration not stated), for which the inhibition is -10.4%.

In the case of `O=C(CN1C(=O)NC2(CCCCCC2)C1=O)Nc1ccc(Br)cc1Br`, the inhibition came out at 74.7%. Turning to `CCOC(=O)N1CCN(CC(=O)Nc2cc3c(cc2C(C)=O)OCO3)CC1`, the inhibition is 2.59%. The value for `COc1cc(OCC(=O)NC(C)C)cc2c1C(=O)O[C@@H](C)CCCC(=O)CCCCC2` was -6.52%; that for `O=C(NCCCN1CCCC1=O)c1cn(-c2ccccc2)nc1-c1ccccc1` was 2.99%; that for `Oc1ccc(N=C/C=C/c2ccc(Br)cc2)cc1-c1nc2ccccc2s1` was -1.24%.

For `CCN(C(=O)c1ccc2c(SCC(=O)O)c3c(nc2c1)CCC3)c1cc(Cl)ccc1OC`, the inhibition is -1.8%. The value for `C/C(=N\NC(=S)Nc1ccccc1C)c1ccc(O)cc1` was 21.2%; that for `O=C(Oc1c(-c2ccccc2)c(=O)n2c3c(cccc13)CC2)c1cccc([N+](=O)[O-])c1` was 33.1%. The figure for `COc1cc(Cl)ccc1OCc1cc(C(=O)N(C)Cc2cccc3cnccc23)no1` is 2.41%. Take `O=C(CNS(=O)(=O)c1ccc(Br)cc1)N1CCN(Cc2ccccc2)CC1`: the inhibition amounted to 4.55%. Take `CCN(CC)CCNC(=O)CCn1c(=S)[nH]c2cc3c(cc2c1=O)OCO3`: the inhibition amounted to 7.09%.

Regarding `Cc1cc(C)c(C)c(S(=O)(=O)NCc2cccnc2)c1C`, the inhibition is 0.47%. For `COc1ccc(NC(=O)CCNS(=O)(=O)c2ccc3c(c2)c(=O)n(C)c(=O)n3C)c(OC)c1`, the inhibition turned out to be 7.86%.

Turning to `Cc1ccccc1OCC(=O)Nc1ccccc1-c1ccccc1`, the inhibition stood at 0.06%. The figure for `Cc1cc2[nH]c(=O)c(=O)[nH]c2cc1S(=O)(=O)N1CCN(c2cccc(Cl)c2)CC1` is -5.96%; for `CC(C)(C)Nc1nc(SCC(=O)Nc2ccccc2Cl)nc(N2CCOCC2)n1` it is 3.64%. The figure for `COC(=O)c1ccccc1NC(=O)n1cc(C)cn1` is -5.34%. The value for `Cc1ccc(O)c(NC(=O)C2=CC(c3ccco3)=NS(=O)(=O)N2C)c1` was -7.04%; that for `Cc1cc(=S)nc(-c2ccccn2)[nH]1` was 15%; that for `Cc1cc(O)cc(O)c1C(=O)Cc1cnn(-c2ccccc2)c1` was 3.24%.

For `C=CCn1c(=S)[nH]c2nc3c(cc2c1=O)COC(C)(C)C3`, the inhibition was 4.11%. As to `CCOCCCNC(=O)C(NC(=O)CNC(=O)c1ccccc1)c1ccc(C)cc1` (configuration not stated), the inhibition is -3.08%. For `Cn1c(SCC(=O)N2CCCC2)nc2ccccc2c1=O`, the inhibition was 0.84%. The figure for `O=c1cc(N2CCc3ccccc3C2)[nH]c(=O)n1-c1ccc(Cl)cc1` is -4.54%.

Regarding `CN(c1ccccc1)c1nc(N)c([N+](=O)[O-])c(N2CCCC2)n1`, the inhibition is -0.17%. On to `O=C(C[n+]1cc(Br)cc(Br)c1)c1ccc(Cl)cc1`, for which the inhibition is 5.17%. As to `CCOc1cc(N2CCOCC2)c(OCC)cc1NC(=O)c1cc(C)cc(C)c1`, the inhibition was 43.8%.

`CCOC(=O)c1oc2ccccc2c1NC(=O)c1ccccc1OC`: the inhibition was 37.8%. Regarding `Cc1cc(C(=O)O)sc1C`, the inhibition came out at 4.33%.

For the compound `CSCC[C@H](NC(=O)Cc1c(C)c2cc3c4c(oc3cc2oc1=O)CCCC4)C(=O)O`, the inhibition amounted to 2.34%. In the case of `CCC(=O)Nc1ccc(-c2ccc(N3CCC(C)CC3)nn2)cc1`, the inhibition came out at 5.15%. In the case of `Cc1ccc(C(=O)Nc2ccc3c(c2)OCO3)cc1Cl`, the inhibition worked out at 3.37%. The value for `CCC(C)C(NC(N)=O)C(=O)Nc1ccc(OCc2ccccc2)cc1` (configuration not stated) was -2.3%; that for `Cc1noc(NS(=O)(=O)c2ccc(N/C=C\C(=O)c3ccc4c(c3)OCO4)cc2)c1C` was 32.3%.

Consider `Cc1ccccc1C(=O)Nc1ccnn1C1CCN(Cc2cnn(C(C)C)c2)CC1`, for which the inhibition is -5.05%.

Turning to `COc1ccccc1NC(=O)CNS(=O)(=O)c1ccccc1`, the inhibition is -0.32%.
